# Experimental data taken from PubChem BioAssay (NCATS).
# Where “and” joins values, the source holds several entries; their conditions need not be identical. Equal values may be shown once. Inconclusive means that the source gave no clear call. Such entries were picked first, then a sample of the others. For some assays here: Potencies beside an inconclusive call are fits to weak or partial responses and may not hold up. Calls of active or inactive are those of the source. Calls come from the whole dose curve; as a rule, active = well fitted curve in the direction sought with a large enough effect; inconclusive = small, poorly fitted or top-dose-only effect, or another doubt; inactive = no such curve, though single readings can be large; an effect the other way counts as inactive or inconclusive.
# Assays:
# [1] = qHTS of pediatric cancer cell lines to identify multiple opportunities for drug repurposing: Confirmatory screen for SK-N-SH cells (AID 1347129); details: SK-N-SH neuroblastoma cell viability; series mostly up to 46.1 µM;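 note: cells exposed to compound for 48 h before viability read; nearly all actives have a fitted effect of over 60% in size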; note: potency is the fitted concentration of half-maximal effect
# Procedure, shortened: (§1)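 Viability after 48 h compound treatment at 37C, 500-1,000 cells/well, read as ATP luminescence with CellTiter-Glo. Primary screens used 11-point (MIPE, 0.78 nM-46 µM) or 8-point (NPC, 0.59 nM-46 µM) final concentrations; follow-up screens used 11-point dilutions.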
# [2] = qHTS of pediatric cancer cell lines to identify multiple opportunities for drug repurposing: Confirmatory screen for OHS-50 cells (AID 1347128); details: OHS-50 osteosarcoma cells viability; series mostly up to 45.9 µM;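 note: potency is the fitted concentration of half-maximal effect; compound exposure lasted 48 h at 37 degrees C; nearly all actives have a fitted effect of over 55% in size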
# Procedure, shortened: as §1
# [3] = test system: Zika virus NS2B-NS3 protease; experiment: Primary screen GU AMC qHTS for Zika virus inhibitors (AID 1347154); details: Zika NS2B-NS3 unlinked protease, AMC fluorogenic substrate; series mostly up to 54.1 µM; note: nearly all actives have a fitted effect of over 70% in size; note: potency is the fitted concentration of half-maximal effect
# Procedure, shortened: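 Unlinked Zika NS2B hydrophilic domain–NS3 protease complex at 25 nM in 10 mM Tris-HCl pH 8.0, 0.01% Tween 20, with an AMC peptide substrate. Fluorescence change (340/450 nm) over 15 min at room temperature, normalized to controls, fitted to 4-parameter Hill.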
# [4] = test system: Zika virus NS2B-NS3 protease (linked construct); experiment: Confirmatory screen NINDS AMC qHTS for Zika virus inhibitors (AID 1347152); details: Purified linked NS2B-NS3, AMC substrate fluorescence; series mostly up to 56.6 µM;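 note: AMC fluorescence gain from cleaved Bz-Nle-KRR-AMC substrate over 15 min; top concentration of the series differs between compounds; nearly all actives have a fitted effect of over 70% in size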
# Procedure, shortened: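 Concentration-response confirmation used the NINDS linked protease (NS2B hydrophilic domain joined to NS3 protease domain), 1 nM, with a 15-min compound preincubation. Substrate, Nle-KRR-AMC at 10 microM, was read by UV fluorescence before and after 15 min.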
# [5] = biological target: Furin (Homo sapiens) (UniProt P09958); experiment: Furin counterscreen qHTS for Zika virus inhibitors (AID 1347149); details: furin enzymatic counterscreen, fluorogenic substrate; series mostly up to 57.5 µM; note: potency is the fitted concentration of half-maximal effect; nearly all actives have a fitted effect of over 70% in size
# Procedure, shortened: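 Counterscreen measures cleavage of 2 microM BOC-RVRR-AMC, below its ~15 microM Km, by 5 nM full-length human furin at pH 7.0 after a 15-min compound preincubation. Inhibition derives from the 15-min fluorescence increase at 37C.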
# [6] = test system: Zika virus NS2B-NS3 protease (unlinked); experiment: Optimization of GU AMC qHTS for Zika virus inhibitors: Unlinked NS2B-NS3 protease assay (AID 1347151); details: recombinant ZIKV NS2B-NS3 protease, fluorogenic AMC substrate; series mostly up to 52.5 µM; note: potency is the fitted concentration of half-maximal effect; nearly all actives have a fitted effect of over 80% in size
# Procedure, shortened: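 In this qHTS, compounds acted on 25 nM unlinked Zika NS2B–NS3 in pH 8.0 Tris/Tween buffer. Cleavage of an AMC peptide ran 15 min at room temperature, to about 20% conversion.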
# [7] = ZIKV-mCherry secondary qHTS for Zika virus inhibitors (AID 1347158); details: Vero cells, ZIKV-mCherry infection imaging, 48-72 h; series mostly up to 49.2 µM; note: top concentration of the series differs between compounds
# Procedure, shortened: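 Read-out is percent infection: mCherry-positive Vero cells (nuclear-proximal intensity >450 RFU, 3 SD above negative controls) counted by high-content imaging of Hoechst-stained, PFA-fixed wells after 48-72 h with ZIKV-mCherry at MOI 1 and compound.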
# [8] = biological target: N-terminal Xaa-Pro-Lys N-methyltransferase 1 (Homo sapiens) (UniProt Q9BV86); experiment: qHTS Assay for Inhibitors of N-terminal methyltransferase 1 (NTMT1): LOPAC validation of the NTMT1 SAHH-coupled ThioGlo3 Assay (AID 1347143); details: recombinant NTMT1, SAHH-coupled ThioGlo3 fluorescence; series mostly up to 114 µM;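 note: SAH from peptide methylation measured as thiol fluorescence via SAHH coupling and ThioGlo3; potency is the fitted concentration of half-maximal effect; nearly all actives have a fitted effect of over 70% in size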
# Procedure, shortened: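 Steps: dispense 125nM NTMT1; pin-transfer test compounds at several concentrations, with 1uM RCC1-6 peptide as control; incubate 1 min; start with reagent holding 100uM SAM, 10uM SAHH, 15uM ThioGlo3; read at 0 and 30 min.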
# Tags give direction and shape of the fitted curve.
# UniProt Q9BV86, sequence (Q9BV86 whole entry, looked up): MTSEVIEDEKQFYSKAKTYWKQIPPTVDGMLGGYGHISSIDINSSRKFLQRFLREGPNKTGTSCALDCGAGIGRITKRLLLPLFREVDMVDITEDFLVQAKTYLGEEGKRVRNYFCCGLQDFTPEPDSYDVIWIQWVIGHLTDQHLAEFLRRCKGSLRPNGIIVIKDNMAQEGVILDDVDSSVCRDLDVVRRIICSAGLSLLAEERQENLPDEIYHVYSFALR
# UniProt P09958, sequence (P09958 whole entry, looked up): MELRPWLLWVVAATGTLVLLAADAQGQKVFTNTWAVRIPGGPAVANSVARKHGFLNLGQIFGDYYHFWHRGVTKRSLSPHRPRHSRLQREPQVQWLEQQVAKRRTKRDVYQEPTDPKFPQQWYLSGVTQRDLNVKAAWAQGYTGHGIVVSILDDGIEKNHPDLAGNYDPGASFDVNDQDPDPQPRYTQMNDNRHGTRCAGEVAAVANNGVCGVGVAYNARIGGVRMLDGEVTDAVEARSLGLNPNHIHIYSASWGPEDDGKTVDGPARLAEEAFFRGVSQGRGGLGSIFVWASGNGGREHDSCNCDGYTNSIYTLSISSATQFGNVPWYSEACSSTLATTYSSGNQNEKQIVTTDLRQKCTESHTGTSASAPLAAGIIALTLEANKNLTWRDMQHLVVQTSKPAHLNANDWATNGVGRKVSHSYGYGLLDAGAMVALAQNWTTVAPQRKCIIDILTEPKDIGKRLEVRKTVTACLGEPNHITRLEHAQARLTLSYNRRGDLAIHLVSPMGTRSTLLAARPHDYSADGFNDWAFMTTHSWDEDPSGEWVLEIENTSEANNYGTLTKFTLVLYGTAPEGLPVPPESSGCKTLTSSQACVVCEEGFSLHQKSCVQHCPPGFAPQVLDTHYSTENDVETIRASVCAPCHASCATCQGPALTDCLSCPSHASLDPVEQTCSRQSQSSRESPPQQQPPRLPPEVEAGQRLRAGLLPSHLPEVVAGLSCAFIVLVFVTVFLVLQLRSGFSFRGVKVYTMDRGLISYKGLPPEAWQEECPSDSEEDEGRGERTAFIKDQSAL
structure (smiles),measurement,setting,value
CC1(C)O[C@@H]2C[C@@H]3[C@H]4C[C@@H](F)C5=CC(=O)C=C[C@]5(C)[C@@]4(F)[C@@H](O)C[C@]3(C)[C@]2(C(=O)CO)O1,Potency,[1],"inconclusive: 3.32 µM [cytotoxic, full curve]"
CC(=O)OCC(=O)[C@@]12N=C(C)O[C@@H]1C[C@H]1[C@@H]3CCC4=CC(=O)C=C[C@]4(C)[C@H]3[C@@H](O)C[C@@]12C,Potency,[1],"inconclusive: 13.2 µM [cytotoxic, partial curve]"
NC(=O)Nc1cc(-c2ccc(CN3CCOCC3)cc2)sc1C(N)=O,Potency,[2],"inconclusive: 6.57 µM [cytotoxic, full curve]"
same,Potency,[3],"inconclusive: 13.6 µM [inhibitor, partial curve]"
OC[C@H]1O[C@@H](n2cnc3c(=S)nc[nH]c32)[C@H](O)[C@@H]1O,Potency,[1],"inconclusive: 1.18 µM [cytotoxic, full curve]"
Cc1c(C)c2c(c(C)c1O)CCC(C)(COc1ccc(CC3SC(=O)NC3=O)cc1)O2 (stereo not given),Potency,[2],"inconclusive: 0.0015 µM [rising, full curve, poor fit]"
same,Potency,[3],"inconclusive: 12.6 µM [inhibitor, partial curve] and inconclusive: 21.5 µM [inhibitor, partial curve]"
O=C1Nc2ccc(I)cc2C1=Cc1cc(Br)c(O)c(Br)c1,Potency,[2],"inconclusive: 18.5 µM [cytotoxic, partial curve, poor fit]"
same,Potency,[4],inactive
same,Potency,[3],active: 12.1 µM
CCCCC(CC)CN=C(N)NC(N)=NCCCCCCN=C(N)NC(N)=NCC(CC)CCCC (stereo not given),Potency,[1],active: 11.8 µM
same,Potency,[5],active: 21.5 µM
same,Potency,[6],"inconclusive: 19.2 µM [inhibitor, partial curve]"
same,Potency,[3],"inconclusive: 36.1 µM [inhibitor, single point] and inconclusive: 37.7 µM [inhibitor, single point]"
same,Potency,[7],inactive
CC/C(=C(\c1ccccc1)c1ccc(OCCN(C)C)cc1)c1ccccc1,Potency,[8],"inconclusive: 10 µM [inhibitor, full curve] and inconclusive: 8.91 µM [inhibitor, full curve]"
Oc1cc(-c2nc(-c3ccccc3)[nH]c2-c2ccncc2)ccc1Cl,Potency,[1],"inconclusive: 14.8 µM [cytotoxic, partial curve]"
C#CCC(Cc1cnc2nc(N)nc(N)c2n1)c1ccc(C(=O)N[C@@H](CCC(=O)O)C(=O)O)cc1 (stereo not given in full),Potency,[2],active: 0.0414 µM
same,Potency,[3],"inconclusive: 21.5 µM [inhibitor, partial curve]"
CC(C)CN(C[C@@H](O)[C@H](Cc1ccccc1)NC(=O)O[C@H]1CO[C@H]2OCC[C@H]21)S(=O)(=O)c1ccc(N)cc1,Potency,[1],"inconclusive: 33.2 µM [cytotoxic, single point]"
C#Cc1cccc(Nc2ncnc3cc(OC)c(OCCCCCCC(=O)NO)cc23)c1,Potency,[1],active: 2.41 µM
same,Potency,[3],"inconclusive: 10.8 µM [inhibitor, full curve]"
Cn1cnc([N+](=O)[O-])c1Sc1ncnc2nc[nH]c12,Potency,[1],"inconclusive: 2.69 µM [cytotoxic, full curve, poor fit]"
c1cnc(N2CCN(Cc3ccc4c(c3)OCO4)CC2)nc1,Potency,[8],"inconclusive: 56.2 µM [inhibitor, partial curve, poor fit]"
CS(=O)(=O)c1ccc(C(=O)Nc2ccc(Cl)c(-c3ccccn3)c2)c(Cl)c1,Potency,[1],inactive
same,Potency,[3],"inconclusive: 0.0341 µM [inhibitor, partial curve]"
COc1cc(C=C2CCC/C(=C\c3ccc(O)c(OC)c3)C2=O)ccc1O,Potency,[1],active: 18.7 µM
same,Potency,[3],"inconclusive: 32.2 µM [inhibitor, partial curve, poor fit]"
C[C@]12CCC(=O)C=C1CC[C@H]1[C@@H]3CC[C@](O)(C(=O)CO)[C@@]3(C)C[C@H](O)[C@@]12F,Potency,[1],inactive
Nc1ccn([C@@H]2O[C@H](CO)[C@H](O)C2(F)F)c(=O)n1,Potency,[2],"inconclusive: 0.293 µM [cytotoxic, full curve, poor fit]"
same,Potency,[3],inactive
COc1ccc(-c2ccc3c(N4CCOCC4)nc(N4C[C@@H](C)O[C@@H](C)C4)nc3n2)cc1CO,Potency,[2],"inconclusive: 1.47 µM [cytotoxic, full curve, poor fit]"
same,Potency,[3],active: 19.2 µM
NC(N)=NN=C(/C=C/c1ccc([N+](=O)[O-])o1)/C=C/c1ccc([N+](=O)[O-])o1,Potency,[1],active: 2.35 µM
same,Potency,[3],"inconclusive: 36.1 µM [inhibitor, partial curve, poor fit]"
